Experimental data: PubChem BioAssay AID485294 (National Center for Advancing Translational Sciences (NCATS), 2010)
Out of some 370,000 compounds screened, about 150 (0.041%) were called active. Inconclusive results, whose numbers are uncertain, are shown with a selection of clear calls. Calls follow the shape of the dose curve; as a rule, active = well fitted inhibition curve with a large enough effect; inconclusive = small, poorly fitted or top-dose-only effect; inactive = flat fitted curve, though single readings scatter. No potency is given beside an inconclusive call; the fits are too rough.

biological target: Beta-lactamase (Escherichia coli (strain K12)) (UniProt P00811); experiment: qHTS Inhibitors of AmpC Beta-Lactamase (assay with detergent); details: AmpC hydrolysis of nitrocefin, absorbance 480 nm, 0.01% Triton; series mostly up to 114 µM; also: nearly all actives have a fitted effect of over 25% in size
Summary of the method: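 20 mM phosphate pH 7.0 + 0.01% (detergent screen) or 0.0001% Triton X-100; 5.3 nM AmpC reagent; cpd preinc 15 min RT; nitrocefin (800 uM stock) to start; A480 q20 s × 4 min; Activity was normalised to no-enzyme and no-compound control wells.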
Potency is read from the fitted curve at half-maximal effect; tags tell the direction and shape of the fitted curve.

Sequence of UniProt P00811 (P00811 whole entry, looked up): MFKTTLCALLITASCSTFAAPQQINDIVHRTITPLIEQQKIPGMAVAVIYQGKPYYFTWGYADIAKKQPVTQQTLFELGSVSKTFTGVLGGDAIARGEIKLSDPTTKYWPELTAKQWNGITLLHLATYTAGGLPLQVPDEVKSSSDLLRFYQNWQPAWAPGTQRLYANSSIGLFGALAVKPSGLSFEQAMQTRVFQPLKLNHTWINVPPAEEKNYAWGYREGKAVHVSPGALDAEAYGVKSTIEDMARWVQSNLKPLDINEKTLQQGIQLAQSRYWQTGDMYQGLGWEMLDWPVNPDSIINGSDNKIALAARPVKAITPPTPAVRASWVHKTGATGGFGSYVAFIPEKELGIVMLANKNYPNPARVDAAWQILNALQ

Row | Compound | Potency
1 | O=C(CSCc1c(F)cccc1Cl)NCC1CCCO1 (stereo not drawn) | inconclusive [inhibitor, partial curve]
2 | CC(C)(C)NC(=O)CN(C(=O)C1CSC(=O)C1)c1ccc2c(c1)OCCO2 (stereo not drawn) | inactive
3 | CCC(C)(C)NC(=O)CN(C(=O)CNS(=O)(=O)c1ccc(F)cc1)c1ccc2c(c1)OCCO2 | inconclusive [inhibitor, partial curve, poor fit]
4 | Cc1ccccc1NC(=O)COC(=O)/C=C/c1cn(-c2ccccc2)nc1-c1cccnc1 | inactive
5 | CCOC(=O)c1ccc(-c2ccc(/C=C(\C#N)C(=O)Nc3ccc(C)cc3OC)o2)cc1 | inactive
6 | Cc1ccc2[nH]c(=O)c(CN(Cc3ccco3)S(=O)(=O)c3c(C)ccc4nsnc34)cc2c1 | inconclusive [inhibitor, full curve]
7 | CC(C)CC(=O)NC(=S)Nc1ccc(S(=O)(=O)NC(C)(C)C)cc1 | inconclusive [inhibitor, full curve, poor fit]
8 | CC(=O)c1ccc(N2CCN(C(=O)c3cccs3)CC2)c(F)c1 | inactive
9 | CCS(=O)(=O)Nc1cc(C(=O)OC)ccc1C(=O)OC | inconclusive [inhibitor, single point]
10 | COc1ccccc1CC(=O)Nc1ccc2nc(N3CCC(C)CC3)cc(C)c2c1 | inactive
11 | CCOC(=O)C1=C(c2ccccc2)NC(=O)NC1c1ccsc1 (stereo not drawn) | inconclusive [inhibitor, full curve, poor fit]
12 | CCOC(=O)C1=C(C)Nc2nnnn2C1c1ccccc1Cl (stereo not drawn) | inactive
13 | COc1ccc(S(=O)(=O)n2nc(OC(=O)c3ccccc3Br)cc2N)cc1 | inconclusive [inhibitor, full curve, poor fit]
14 | O=C(CCCSc1nc2sc3c(c2c(=O)[nH]1)CCC3)NCCO | inconclusive [inhibitor, full curve, poor fit]
15 | Cc1ccc2c(Cl)cc(Cl)c(OCc3c(C)noc3C)c2n1 | inconclusive [inhibitor, single point]
16 | COc1ccccc1CNC(=O)c1ccc(NS(C)(=O)=O)cc1 | inconclusive [inhibitor, full curve, poor fit]
17 | CC1=CC(C)(C)Nc2ccc(OC(=O)CN3C(=O)c4ccccc4C3=O)cc21 | inconclusive [inhibitor, single point]
18 | Cc1cc(NS(=O)(=O)c2ccc(NC(NC(=O)C(C(F)(F)F)C(F)(F)F)(C(F)(F)F)C(F)(F)F)cc2)no1 | inconclusive [inhibitor, full curve, poor fit]
19 | O=C(CCNC(=O)c1ccc([N+](=O)[O-])cc1)Nc1nc2ccccc2[nH]1 | inactive
20 | COc1ccc(NC(=O)CCN2CCN(c3ccccc3F)CC2)c(OC)c1 | inconclusive [inhibitor, full curve, poor fit]
21 | Cc1ccccc1C(=O)NNC(=O)CCC(=O)Nc1cccc(Cl)c1C | inconclusive [inhibitor, partial curve, poor fit]
22 | CCc1ccc(C2NC(=O)c3[nH]nc(-c4cccc(OC)c4)c32)cc1 (stereo not drawn) | inactive
23 | C(=N\Nc1nc2ccccc2[nH]1)/c1cccs1 | inactive
24 | O=C(COc1ccc2ccccc2c1)NC1=NCCS1 | inactive
25 | Cc1oc2ncn(C)c(=O)c2c1C(=O)NCCCN(Cc1ccccc1)C(C)C | inactive

Row | Compound | Potency
26 | NS(=O)(=O)c1cccc(C(=O)NC2CCSc3ccccc32)c1 (stereo not drawn) | inactive
27 | CCOC(=O)N1CCN(C(=O)c2ccc(Oc3ccc([N+](=O)[O-])cc3)cc2)CC1 | inactive
28 | Cc1cc(NS(=O)(=O)c2ccc(C3CCCCC3)cc2)no1 | inconclusive [inhibitor, full curve, poor fit]
29 | Cc1cc(NC(=O)CSc2nnc(-c3ccoc3C)o2)no1 | inconclusive [inhibitor, full curve, poor fit]
30 | CCC(=O)NC(c1ccc([N+](=O)[O-])cc1)c1c(O)ccc2ccccc12 (stereo not drawn) | inactive
31 | Cn1ccnc1SCC(=O)c1ccc(O)cc1 | inactive
32 | Cc1ccsc1CN(C(=O)c1oc2ccccc2c1C)C1CCS(=O)(=O)C1 (stereo not drawn) | inactive
33 | CC1CCN(CC(=O)Nc2ccc3c(c2)OCO3)CC1 | inconclusive [inhibitor, partial curve, poor fit]
34 | OC1CCN(Cc2cccc(Oc3ccccc3)c2)CC1 | inconclusive [inhibitor, partial curve]
35 | Cc1cc(NC(=O)COC(=O)C2=COCCO2)c([N+](=O)[O-])cc1C | inactive
36 | COc1ccc(C(c2nnnn2C2CCCC2)N2CCC(C)CC2)c(OC)c1 (stereo not drawn) | inactive
37 | Cc1oc(-c2cc(F)cc(F)c2)nc1CN1CCN(C(=O)c2ccco2)CC1 | inconclusive [inhibitor, full curve, poor fit]
38 | Cc1ccc(C(=O)NCCc2csc(-c3cccnc3)n2)cc1 | inconclusive [inhibitor, full curve, poor fit]
39 | CCN(CC)c1ccc(/C=N/NC(=O)CC(C)C)cc1 | inactive
40 | COC(=O)c1c(NC(=O)/C=C/C(=O)O)sc(C)c1-c1ccc(C)c(C)c1 | inconclusive [inhibitor, partial curve]
41 | CCOc1ccccc1CNC(=O)c1cc(-c2ccc(C)c(C)c2)nc2ccccc12 | inactive
42 | CCc1ccc(CNC(=O)CCn2c(=O)c3cccn3c3ccc(F)cc32)cc1 | inactive
43 | Cc1nnc(NC(=O)CCCCCN2C(=O)C3C4C=CC(C4)C3C2=O)s1 (stereo not drawn) | inconclusive [inhibitor, full curve]
44 | COc1ccc(/C=C2/SC(=S)N(Cc3ccccc3)C2=O)cc1O | inactive
45 | Cc1ccc(-c2noc(-c3ccccc3C(=O)NCC3CCCO3)n2)cc1 (stereo not drawn) | inconclusive [inhibitor, full curve, poor fit]
46 | CC(C)Cc1ccc(C(C)C(N)=NCCc2ccccc2)cc1 (stereo not drawn) | inactive
47 | Cc1nc(COC(=O)c2ccc(CO)cc2)cs1 | inactive
48 | COc1ccc(/C=N/NC(=O)c2ccc(COCC(F)(F)C(F)F)cc2)cc1 | inconclusive [inhibitor, partial curve]
49 | CC(=NC1CCCCC1)C1=C(O)c2ccccc2C1=O | inactive
50 | COc1ccccc1C(=O)Nc1ccc(S(=O)(=O)Nc2cc(C)on2)cc1 | inactive

Row | Compound | Potency
51 | COc1ccccc1/C=C/C(=O)OCC(=O)Nc1c(C)nn(-c2ccccc2)c1C | inconclusive [inhibitor, partial curve, poor fit]
52 | O=[N+]([O-])c1cccc(-c2ccc3nnc(SCc4ccccn4)n3n2)c1 | inconclusive [inhibitor, partial curve]
53 | CNS(=O)(=O)c1cccc(C(=O)OCC(=O)NCCCc2ccccc2)c1 | inactive
54 | O=C(CNC(=O)c1ccc(Cl)cc1)OCc1cc(=O)n2nc(C3CCCCC3)sc2n1 | inactive
55 | Cc1cc(OCC(=O)N2CCC(C(=O)O)CC2)c2c3c(c(=O)oc2c1)CCC3 | inconclusive [inhibitor, partial curve, poor fit]
56 | Cc1ccc(Nc2nnc(SCC(=O)Nc3cccc(S(=O)(=O)NC4=NCCCCC4)c3)s2)c(C)c1 | inactive
57 | COc1ccc(CNC(=S)N/N=C(/C)c2ccccc2)cc1 | inactive
58 | COc1ccc(NC(=O)CSCC(=O)Nc2ccccc2N2CCCC2)cc1 | inconclusive [inhibitor, partial curve, poor fit]
59 | CCCCOC(=O)Cn1c(-c2ccccc2)nc2ccccc2c1=O | inconclusive [inhibitor, full curve, poor fit]
60 | COc1ccc(OCC(=O)NNC(=O)Cc2coc3cc(OC)ccc23)cc1 | inconclusive [inhibitor, full curve, poor fit]
61 | O=C(NC1CCOc2ccccc21)c1ccc(=O)[nH]c1 (stereo not drawn) | inconclusive [inhibitor, full curve, poor fit]
62 | Cc1nc2nc[nH]n2c(=O)c1NC(=O)CC12CC3CC(CC(C3)C1)C2 | inconclusive [inhibitor, full curve]
63 | COC(=O)c1ccc(CNC(=O)c2ccc(NS(=O)(=O)c3ccc4[nH]c(=O)[nH]c4c3)cc2)cc1 | inconclusive [inhibitor, full curve, poor fit]
64 | Cn1c(=O)[nH]c(=O)c2c1[nH]c(=S)n2CCCc1ccccc1 | inconclusive [inhibitor, full curve, poor fit]
65 | CCOC(=O)[C@H]1[C@H]2COc3ccc(OC)cc3[C@H]2N2C(=O)CNC(=O)[C@@]12C | inactive
66 | O=C(c1cccc(Cl)c1)C1CCCN(C(=O)c2ccoc2)C1 (stereo not drawn) | inactive
67 | Nn1c(SCc2ccc(Br)cc2)nnc1-c1ccccn1 | inactive
68 | N#CC1(NC(=O)CSc2nc3ccc([N+](=O)[O-])cc3s2)CCCCC1 | inconclusive [inhibitor, partial curve, poor fit]
69 | Nc1nc2ccccc2n1/N=C/c1ccc(-c2ccccc2)o1 | inactive
70 | O=C(CN(Cc1ccco1)S(=O)(=O)c1ccccc1)N/N=C/c1cccc(O)c1 | inactive
71 | O=C(CCNS(=O)(=O)c1ccc2c(c1)CCC(=O)N2)NCc1ccc2c(c1)OCO2 | inactive
72 | COc1ccc(C(=O)OCC(=O)NCC2CCCCC2)cc1F | inconclusive [inhibitor, full curve, poor fit]
73 | COc1cccc(NC(=O)c2ccc(-c3nc(COc4ccc(C)cc4)c(C)o3)cc2)c1 | inconclusive [inhibitor, single point]
